Measured values from PubChem BioAssay AID1468 (National Center for Advancing Translational Sciences (NCATS), 2008).
Out of some 280,000 compounds screened, about 1,100 (0.39%) were called active. Inconclusive means that the source gave no clear call. Such entries were picked first, then a sample of the others. The call rests on the fitted dose curve; in most records, active means well fitted inhibition curve with a large enough effect; inconclusive means small, poorly fitted or top-dose-only effect, or effect the other way; inactive means flat fitted curve, though single readings scatter. Potencies beside an inconclusive call are fits to weak or partial responses and may not hold up.

target: Microtubule-associated protein tau (Homo sapiens) (UniProt P10636); experiment: qHTS for Inhibitors of Tau Fibril Formation, Fluorescence Polarization; conditions: K18 P301L tau heparin fibrillization, Alexa594 FP, 6 h; series mostly up to 57.7 µM; activity, negative = inhibition: at the top concentration; further: nearly all actives have a fitted effect of over 55% in size
UniProt P10636, sequence (P10636 whole entry, looked up): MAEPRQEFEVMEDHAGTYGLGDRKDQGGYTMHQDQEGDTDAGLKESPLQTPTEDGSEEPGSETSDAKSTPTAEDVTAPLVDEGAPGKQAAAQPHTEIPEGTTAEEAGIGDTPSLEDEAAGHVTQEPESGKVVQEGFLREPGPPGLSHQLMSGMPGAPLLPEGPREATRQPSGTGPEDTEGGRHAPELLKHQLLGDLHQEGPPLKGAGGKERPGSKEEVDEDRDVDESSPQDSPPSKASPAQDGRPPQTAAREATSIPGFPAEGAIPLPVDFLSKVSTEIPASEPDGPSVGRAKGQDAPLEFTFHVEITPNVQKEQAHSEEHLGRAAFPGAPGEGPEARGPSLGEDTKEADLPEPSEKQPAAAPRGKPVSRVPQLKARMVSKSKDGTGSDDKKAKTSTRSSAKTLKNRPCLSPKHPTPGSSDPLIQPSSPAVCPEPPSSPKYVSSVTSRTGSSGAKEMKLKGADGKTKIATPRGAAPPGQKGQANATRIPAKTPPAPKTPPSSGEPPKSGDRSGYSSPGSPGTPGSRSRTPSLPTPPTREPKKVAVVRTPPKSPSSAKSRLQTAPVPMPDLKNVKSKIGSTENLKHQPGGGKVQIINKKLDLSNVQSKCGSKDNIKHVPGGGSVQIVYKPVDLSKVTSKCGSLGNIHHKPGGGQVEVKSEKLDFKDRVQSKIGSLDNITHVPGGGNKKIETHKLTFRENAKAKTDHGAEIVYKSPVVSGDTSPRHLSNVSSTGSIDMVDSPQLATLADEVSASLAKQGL
Excerpt: NIH Molecular Libraries Probe Production Network [MLPCN]
NIH Chemical Genomics Center [NCGC]
Assay Provider: Carlo Ballatore, University of Pennsylvania
The microtubule-associated protein tau is an abundant protein in the axons of neurons that stabilizes microtubules. With its ability to modulate microtubule dynamics, tau contributes directly or indirectly, to key structural and regulatory cellular functions. Particularly important is the influence tau exerts on axonal transport, which allows signaling molecules, trophic factors and other essential cellular constituents to travel along the axons. Under pathological conditions, tau becomes sequestered into insoluble aggregates called neurofibrillary tangles. This phenomenon is believed to have pathological consequences by promoting axonal transport deficits that ultimately lead to synaptic dysfunction and neuronal loss. To identify inhibitors of tau aggregation, a heparin-induced tau fibril formation assay was used that employed a recombinantly expressed fragment of tau, K18 (Q242-E372), bearing a P301L mutation (Gustke et al. 1994; Hong et al. 1998).
Gustke, N., B. Trinczek, et al. (1994). "Domains of tau protein and interactions with microtubules." Biochemistry 33(32): 9511-22.
Hong, M., V. Zhukareva, et al. (1998).
Li, W. and V. M. Lee (2006). "Characterization of two VQIXXK motifs for tau fibrillization in vitro." Biochemistry 45(51): 15692-701.
von Bergen, M., S. Barghorn, et al. (2001). "Mutations of tau protein in frontotemporal dementia promote aggregation of paired helical filaments by enhancing local beta-structure." J Biol Chem 276(51): 48165-74.
NCGC Assay Protocol Summary:
For screening, 2 uL/well human K18 P301L (15 uM unlabeled and 0.24 uM Alexa 594-labeled tau final concentrations) in reagent buffer (100 mM sodium acetate pH 7) was dispensed into black solid 1536-well plates (Grenier) using a solenoid-based dispenser. Following transfer of 23 nL compound or DMSO vehicle by a pin tool, 2 uL/well heparin (20 uM final concentration) in reagent buffer was added and the plate centrifuged 15 s at 1000 RPM. Plates were incubated 6 hr at 37 C and then 1 uL/well ThT (30 uM final concentration) was added. After a 1 hr ambient incubation, the plates were read by an Envision (Perkin Elmer) to monitor Alexa 594 FP (555 nm excitation and 632 nm emission).
Keywords: NIH Roadmap, MLPCN, MLI, MLSMR, NCGC, qHTS, tau, tauopathies, Alzheimer's disease, fibril, neurodegeneration, aggregation
On the % scale 0 is the no-effect control and ±100 the full control effect; potency means the concentration at half of the fitted maximal effect; tags describe the fitted curve by direction and shape.

Potency, inconclusive:
COc1ccc(NC(=O)c2ccccc2NC(=O)CSc2ccc(C)cc2)cc1 5.01 µM [inhibitor, partial curve, poor fit], O=CN1CCc2scc[n+]2-c2ccccc21 25.1 µM [inhibitor, partial curve], COC(=O)C1=C(c2ccccc2)c2ccccc2S(=O)(=O)N1CC(=O)Nc1ccc(F)c(F)c1 22.4 µM [inhibitor, partial curve], CC(=O)N[C@H](CS)C(=O)O 14.1 µM [inhibitor, partial curve, poor fit], COc1ccc(NC(=O)CN2CCCN(Cc3ccc(Cl)cc3)S2(=O)=O)cc1Cl 31.6 µM [inhibitor, single point], CCCN(CCC)C(=O)c1cc([N+](=O)[O-])cc2c1-c1ccc([N+](=O)[O-])cc1C2=C(C#N)C#N 39.8 µM [inhibitor, single point], COc1ccc(Cl)cc1C(=O)O/N=C(\N)c1ccc(Cl)cc1 39.8 µM [inhibitor, single point], NC(=O)CC(NC(=O)Cc1ccc(Br)cc1)c1ccc(NCCc2ccc(Cl)cc2)c([N+](=O)[O-])c1 (centres undefined) 8.91 µM [inhibitor, partial curve], CCCC(=O)OCCNc1cc(Sc2nccn2C)c2nonc2c1[N+](=O)[O-] 39.8 µM [inhibitor, single point], Cc1cc(C(=O)N/N=C/c2cc(Br)cc([N+](=O)[O-])c2O)c2ccccc2n1 7.94 µM [activator, partial curve, poor fit], FC(F)(F)Oc1ccc(NC(=S)Nc2ccccc2N2CCOCC2)cc1 22.4 µM [inhibitor, single point], O=C(Nc1c(C(=O)Nc2ccc(F)cc2)oc2ccccc12)c1ccccc1F 8.91 µM [inhibitor, partial curve], O=C(Nc1ccc(Oc2ccccc2)cc1)c1ccc(Cn2c(=O)[nH]c3ccsc3c2=O)cc1 17.8 µM [inhibitor, partial curve], OC(COc1ccccc1)Cn1c2ccccc2c2ccccc21 (centres undefined) 28.2 µM [inhibitor, partial curve], Cc1ccc(-n2c(SCC(=O)Nc3cccc(S(=O)(=O)NC4=NCCCCC4)c3)nc3ccccc3c2=O)cc1C 39.8 µM [inhibitor, single point], COc1ccc(S(=O)(=O)N2CCCCCC2)cc1NC(=O)Cc1ccccc1F 0.631 µM [inhibitor, single point], CCOc1ccc2nc(NC(=O)CS(=O)(=O)c3ccc(Cl)cc3)sc2c1 31.6 µM [inhibitor, partial curve], COc1ccc(OCc2nc(N)nc(Nc3ccc(C)cc3)n2)cc1 44.7 µM [inhibitor, single point], COc1ccc(N2C(S)=C(C#N)C(=O)NC2c2ccco2)cc1 (centres undefined) 28.2 µM [inhibitor, single point], CCOC(=O)NNc1ccc2nonc2c1[N+](=O)[O-] 11.2 µM [inhibitor, partial curve], C=CCc1cccc(/C=N/NC(=O)CCC(=O)Nc2ccc(F)cc2)c1O 39.8 µM [inhibitor, single point], CCOc1cccc(CC(=O)Nc2ccc3nc(N4CCCCC4)cc(C)c3c2)c1OCC 10 µM [activator, partial curve], CCCNC(=O)c1ccc(-n2c(-c3ccccc3)cc3c2CCCCC3)cc1 25.1 µM [inhibitor, single point], O=C(NCc1ccccc1)c1ccc(NC(=O)c2nsc3ccccc23)cc1 6.31 µM [inhibitor, partial curve], COc1cc(NC2CCCCC2O)c2nc(-c3ccc(Cl)cc3)ccc2c1 (centres undefined) 4.47 µM [activator, full curve, poor fit], CN(C)c1ccc(CNC(=O)c2cc3cc(S(=O)(=O)N4CCCCC4)ccc3n2C)cc1 14.1 µM [activator, partial curve], OC(c1ccccn1)C1CCN(Cc2nc(C(c3ccccc3)c3ccccc3)no2)CC1 (centres undefined) 39.8 µM [inhibitor, single point], N#Cc1c(-c2ccccc2)cc(C2CC2)nc1SCC(=O)c1cccs1 11.2 µM [inhibitor, partial curve]

Potency, active:
Cc1ccc(Cl)c2sc(NC(=O)CS(=O)(=O)c3ccc(Cl)cc3)nc12 11.2 µM

activity, negative = inhibition, inactive:
CCOC(=O)N1CCN(C(=O)c2cccc(NS(=O)(=O)c3ccc(F)c(F)c3)c2)CC1 5.69%, CC(=O)OCC(=O)c1c[nH]c2ccccc12 -8.98%, CC(=O)c1cn(CC(=O)Nc2ccc(C)cc2C)c2ccccc12 1.56%, CCN1c2ccccc2-c2nc(SCC(=O)NCc3ccc(C)cc3)ncc2S1(=O)=O -6.11%, COc1ccc(Cc2nnc(N/N=C/c3ccc(Br)cc3)[nH]c2=O)cc1OC -11%, O=C(Nc1ccc(F)cc1F)c1cc(-c2ccccc2O)no1 1.28%, C/C(CC(=O)NC(C)(C)C)=N\NC(=O)COc1ccc(C)cc1Br 4%, O=C(CSc1nc(=O)[nH]c2c1CCCC2)Nc1ccccc1C(F)(F)F 6.42%, O=C(CSc1n[nH]c(-c2ccccc2)n1)Nc1ncc(Br)cc1Br 4.74%, Cc1ccc(C(C)C)c(OCC(=O)N2CCC(c3nc4ccccc4o3)CC2)c1 1.01%, CCn1c(SCCOc2ccccc2F)nc2ccccc21 -6.62%, COc1ccc(C(CC(=O)O)NC(=O)c2cccs2)cc1 (centres undefined) 7.12%, Cc1ccc(C2c3c(oc4ccccc4c3=O)C(=O)N2c2ccc(C)cn2)cc1 (centres undefined) -4.36%, Cc1ccc(CNC(=O)Cc2coc3cc(C)cc(C)c23)cc1 -2.64%, O=C1c2cccnc2C(Nc2ccc(Br)cc2)N1Cc1cccs1 (centres undefined) 5.89%
